Experimental data published in paper PMC11231238, “SPRING licenses S1P-mediated cleavage of SREBP2 by displacing an inhibitory pro-domain” (Nature Communications, 2024).
No constants are given. Whether binding was seen depends on the method and setting. Binding seen in cells or lysates may run through a third protein. Some binding calls cover weakened binding; strength is not graded here. Tags and fused reporters may be left off the sequences shown. Each block holds one binder with its values, some of them ahead of it.

Experiments:
Experiment in all cases: pull-down; HEK 293T supernatants of co-transfected cells with 50 mM imidazole; NiNTA resin holds the His10 tag of S1P_(ecto), 1-2 h at 4 °C; washes in 150 mM NaCl, 50 mM HEPES-NaOH pH 7.5, 50 mM imidazole; elution with 300 mM imidazole; immunoblot anti-HA, anti-His, anti-FLAG
[1] = biological target: T1, S1P_(ecto)^N328A (FLAG-S1P_(ecto)-His10 background) (human) (UniProt Q14703)
T1 sequence: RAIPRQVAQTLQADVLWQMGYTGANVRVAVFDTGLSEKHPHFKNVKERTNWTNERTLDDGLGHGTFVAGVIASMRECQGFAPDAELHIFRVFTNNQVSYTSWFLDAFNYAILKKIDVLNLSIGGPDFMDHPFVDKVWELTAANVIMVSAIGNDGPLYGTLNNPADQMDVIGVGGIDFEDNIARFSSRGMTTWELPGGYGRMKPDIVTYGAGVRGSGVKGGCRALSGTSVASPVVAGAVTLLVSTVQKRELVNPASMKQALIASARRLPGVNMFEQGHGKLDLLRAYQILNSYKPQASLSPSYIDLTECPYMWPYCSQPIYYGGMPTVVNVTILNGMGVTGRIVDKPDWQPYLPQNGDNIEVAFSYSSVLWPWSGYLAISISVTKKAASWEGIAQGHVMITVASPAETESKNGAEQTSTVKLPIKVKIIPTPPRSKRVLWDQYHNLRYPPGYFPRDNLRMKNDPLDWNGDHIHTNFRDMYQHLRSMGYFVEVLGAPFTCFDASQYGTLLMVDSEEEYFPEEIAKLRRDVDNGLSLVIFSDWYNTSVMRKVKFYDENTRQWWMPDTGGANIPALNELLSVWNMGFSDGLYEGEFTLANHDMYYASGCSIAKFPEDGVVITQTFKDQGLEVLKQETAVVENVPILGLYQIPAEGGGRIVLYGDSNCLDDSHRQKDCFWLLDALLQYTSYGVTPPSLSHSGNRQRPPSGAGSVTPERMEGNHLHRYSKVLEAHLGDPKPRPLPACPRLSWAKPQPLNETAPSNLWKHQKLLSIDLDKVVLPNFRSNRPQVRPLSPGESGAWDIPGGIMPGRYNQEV

[2] = biological target: T2, FLAG-S1P_(ecto)^S414A-His10 (A-form) (human) (UniProt Q14703)
T2 sequence: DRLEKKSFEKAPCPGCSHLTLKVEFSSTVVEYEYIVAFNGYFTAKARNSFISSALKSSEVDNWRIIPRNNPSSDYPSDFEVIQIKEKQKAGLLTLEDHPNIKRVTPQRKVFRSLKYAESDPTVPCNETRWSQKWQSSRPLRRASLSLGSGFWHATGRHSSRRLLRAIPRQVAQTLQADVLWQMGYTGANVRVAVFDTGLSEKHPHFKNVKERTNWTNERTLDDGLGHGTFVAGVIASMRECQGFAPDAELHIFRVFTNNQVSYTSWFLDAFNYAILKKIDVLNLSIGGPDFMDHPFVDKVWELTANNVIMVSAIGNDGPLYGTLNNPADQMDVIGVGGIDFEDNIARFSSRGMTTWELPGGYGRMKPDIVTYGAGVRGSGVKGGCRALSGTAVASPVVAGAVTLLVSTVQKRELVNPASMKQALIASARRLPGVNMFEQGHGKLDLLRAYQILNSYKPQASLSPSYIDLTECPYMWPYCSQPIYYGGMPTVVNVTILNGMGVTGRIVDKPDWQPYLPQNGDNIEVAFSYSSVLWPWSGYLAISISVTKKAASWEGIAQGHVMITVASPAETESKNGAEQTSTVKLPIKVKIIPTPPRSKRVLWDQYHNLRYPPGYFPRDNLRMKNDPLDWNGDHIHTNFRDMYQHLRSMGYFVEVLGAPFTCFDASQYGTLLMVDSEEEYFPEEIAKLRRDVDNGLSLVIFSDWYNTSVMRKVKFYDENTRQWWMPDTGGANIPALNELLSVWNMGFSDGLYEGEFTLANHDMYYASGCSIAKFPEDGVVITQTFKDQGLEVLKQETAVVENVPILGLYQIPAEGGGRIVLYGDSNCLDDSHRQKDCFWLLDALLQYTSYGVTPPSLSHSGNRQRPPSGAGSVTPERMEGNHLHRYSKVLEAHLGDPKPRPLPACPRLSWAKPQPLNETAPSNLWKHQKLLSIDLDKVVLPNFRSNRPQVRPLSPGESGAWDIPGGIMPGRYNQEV

[3] = biological target: T3, FLAG-S1P_(ecto)-His10, matured C-form (human, UniProt Q14703 187-998)
T3 construct: human S1P (MBTPS1); expressed as IgK leader-FLAG-residues 23-998-His10; after autoproteolysis the His10-bearing C-form; The N-terminal FLAG tag leaves with the A-domain; also called WT S1P_(ecto); C-form of S1P_(ecto); source: HEK 293S GnTI- (BacMam baculovirus), secreted, purified (NiNTA, gel filtration); HEK 293T, transfected, secreted, in supernatant; not shown: His10, C-terminal, kept
T3 sequence (looked up): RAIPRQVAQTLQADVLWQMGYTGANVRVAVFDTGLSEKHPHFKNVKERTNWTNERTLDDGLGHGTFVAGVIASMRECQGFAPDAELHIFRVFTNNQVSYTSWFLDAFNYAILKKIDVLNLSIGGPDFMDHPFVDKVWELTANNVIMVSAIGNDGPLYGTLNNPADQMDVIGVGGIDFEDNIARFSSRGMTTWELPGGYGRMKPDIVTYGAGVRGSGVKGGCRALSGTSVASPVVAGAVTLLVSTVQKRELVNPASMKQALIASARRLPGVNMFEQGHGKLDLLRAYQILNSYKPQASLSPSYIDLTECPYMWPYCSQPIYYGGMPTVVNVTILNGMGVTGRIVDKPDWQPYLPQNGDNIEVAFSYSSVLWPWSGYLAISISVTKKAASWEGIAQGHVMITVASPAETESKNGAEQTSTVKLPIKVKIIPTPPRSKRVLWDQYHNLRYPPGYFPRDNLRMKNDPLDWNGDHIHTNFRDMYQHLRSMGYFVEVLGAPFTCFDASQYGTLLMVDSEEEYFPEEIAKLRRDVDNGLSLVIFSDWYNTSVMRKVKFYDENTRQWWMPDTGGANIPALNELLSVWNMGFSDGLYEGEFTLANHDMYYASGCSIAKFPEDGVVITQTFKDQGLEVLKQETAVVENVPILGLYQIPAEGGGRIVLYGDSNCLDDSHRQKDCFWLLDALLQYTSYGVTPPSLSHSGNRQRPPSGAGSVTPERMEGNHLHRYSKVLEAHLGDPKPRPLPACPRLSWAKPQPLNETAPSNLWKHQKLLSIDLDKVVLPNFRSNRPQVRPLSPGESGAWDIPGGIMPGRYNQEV

[4] = biological target: T4, S1P_(ecto)^P317A (FLAG-S1P_(ecto)-His10 background) (human) (UniProt Q14703)
T4 sequence: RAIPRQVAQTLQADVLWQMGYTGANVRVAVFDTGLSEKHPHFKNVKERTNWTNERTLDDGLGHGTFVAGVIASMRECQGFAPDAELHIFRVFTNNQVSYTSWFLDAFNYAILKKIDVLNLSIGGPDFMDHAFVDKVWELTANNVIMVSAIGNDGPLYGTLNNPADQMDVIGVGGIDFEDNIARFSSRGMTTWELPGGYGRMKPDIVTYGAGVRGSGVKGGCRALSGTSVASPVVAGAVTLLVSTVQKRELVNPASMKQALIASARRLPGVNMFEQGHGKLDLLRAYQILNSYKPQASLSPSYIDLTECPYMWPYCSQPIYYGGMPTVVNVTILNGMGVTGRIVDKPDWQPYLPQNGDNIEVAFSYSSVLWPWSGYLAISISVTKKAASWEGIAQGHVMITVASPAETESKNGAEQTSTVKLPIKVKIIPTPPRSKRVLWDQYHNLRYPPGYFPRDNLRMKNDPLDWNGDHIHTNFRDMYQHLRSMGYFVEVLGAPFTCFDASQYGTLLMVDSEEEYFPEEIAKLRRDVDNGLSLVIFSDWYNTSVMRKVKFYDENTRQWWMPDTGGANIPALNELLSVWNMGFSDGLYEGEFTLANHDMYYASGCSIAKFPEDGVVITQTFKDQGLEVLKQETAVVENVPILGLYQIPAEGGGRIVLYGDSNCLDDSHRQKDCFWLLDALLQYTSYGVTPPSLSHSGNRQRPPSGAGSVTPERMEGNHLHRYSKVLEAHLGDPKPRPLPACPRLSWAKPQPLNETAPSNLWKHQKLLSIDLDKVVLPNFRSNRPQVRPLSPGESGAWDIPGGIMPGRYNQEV

[5] = biological target: T5, S1P_(ecto)^W556A (FLAG-S1P_(ecto)-His10 background) (human) (UniProt Q14703)
T5 sequence: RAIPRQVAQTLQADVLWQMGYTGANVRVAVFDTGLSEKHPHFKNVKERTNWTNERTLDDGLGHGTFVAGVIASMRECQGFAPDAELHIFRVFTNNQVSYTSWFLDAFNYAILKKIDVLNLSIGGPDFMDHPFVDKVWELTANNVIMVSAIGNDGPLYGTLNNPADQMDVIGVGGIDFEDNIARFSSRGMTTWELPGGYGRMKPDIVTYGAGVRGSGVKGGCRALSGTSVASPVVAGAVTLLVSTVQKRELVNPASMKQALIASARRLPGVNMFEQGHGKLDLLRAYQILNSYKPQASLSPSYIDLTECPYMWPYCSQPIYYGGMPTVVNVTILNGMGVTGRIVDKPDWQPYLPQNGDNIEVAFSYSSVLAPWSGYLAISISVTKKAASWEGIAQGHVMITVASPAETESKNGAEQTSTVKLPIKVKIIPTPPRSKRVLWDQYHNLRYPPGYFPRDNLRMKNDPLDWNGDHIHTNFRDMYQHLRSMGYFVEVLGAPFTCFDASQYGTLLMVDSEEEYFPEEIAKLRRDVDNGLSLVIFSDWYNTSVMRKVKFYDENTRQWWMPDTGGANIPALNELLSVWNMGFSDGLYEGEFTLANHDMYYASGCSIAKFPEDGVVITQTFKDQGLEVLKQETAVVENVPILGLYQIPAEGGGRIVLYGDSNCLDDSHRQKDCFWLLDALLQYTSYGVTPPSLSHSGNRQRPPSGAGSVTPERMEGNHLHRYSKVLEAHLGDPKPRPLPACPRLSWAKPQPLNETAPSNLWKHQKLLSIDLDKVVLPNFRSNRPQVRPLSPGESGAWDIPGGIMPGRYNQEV

binding [1]: no binding | binding [2]: no binding | binding [3]: binds
B1: SPRING_(ecto)-HA (domain or fragment, UniProt Q9H741 36-205)
chain: KQEERAVRDRNLLQVHDHNQPIPWKVQFNLGNSSRPSNQCRNSIQGKHLITDELGYVCERKDLLVNGCCNVNVPSTKQYCCDGCWPNGCCSAYEYCVSCCLQPNKQLLLERFLNRAAVAFQNLFMAVEDHFELCLAKCRTSSQSVQHENTYRDPIAKYCYGESPPELFPA

binding [4]: no binding
B2: SPRING_(ecto)^R95A (HA-tagged) (domain or fragment, UniProt Q9H741 36-205)
chain: KQEERAVRDRNLLQVHDHNQPIPWKVQFNLGNSSRPSNQCRNSIQGKHLITDELGYVCEAKDLLVNGCCNVNVPSTKQYCCDGCWPNGCCSAYEYCVSCCLQPNKQLLLERFLNRAAVAFQNLFMAVEDHFELCLAKCRTSSQSVQHENTYRDPIAKYCYGESPPELFPA

binding [5]: no binding
B3: SPRING_(ecto)^V180A (HA-tagged) (domain or fragment, UniProt Q9H741 36-205)
chain: KQEERAVRDRNLLQVHDHNQPIPWKVQFNLGNSSRPSNQCRNSIQGKHLITDELGYVCERKDLLVNGCCNVNVPSTKQYCCDGCWPNGCCSAYEYCVSCCLQPNKQLLLERFLNRAAVAFQNLFMAVEDHFELCLAKCRTSSQSAQHENTYRDPIAKYCYGESPPELFPA
